# Measured values: ChEMBL document CHEMBL5303300, “EUbOPEN Chemogenomics Library - Multiplex” (2023)
# Certain results were filed several times, with different values. This is not the full list of results. There may be further records. Results that share an entry repeat one measurement across runs, samples, wells, individuals or studies.
# Test system: U2OS
# Assay: Multiplex assay against U2OS
# Assay type: toxicity, cell-based
# Conditions: human, number of replicates 2
# In short: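 Four dyes were applied at seeding to live cells: Hoechst33342, BioTracker Green Microtubule Cytoskeleton Dye, MitoTracker Red and Annexin V Alexa Fluor 680. Imaging after compound addition used a CQ1 microscope at 37°C and 5% CO2. CellPathfinder machine-learning gating then sorted cells into Hoechst high-intensity objects or normal cells, normal cells into healthy, pyknosed or fragmented nuclei, and pyknosed cells into mitotic or apoptotic, with tubulin, mitochondrial-mass and membrane-permeability phenotypes given as per cents of healthy-nucleus cells.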
# [1] = 12 h, 1 µM, compound concentration 1 uM
# [2] = 12 h, 10 µM, compound concentration 10 uM
# [3] = 24 h, 1 µM, compound concentration 1 uM
# [4] = 24 h, 10 µM, compound concentration 10 uM
# [5] = 48 h, 1 µM, compound concentration 1 uM
# [6] = 48 h, 10 µM, compound concentration 10 uM
structure (smiles),measurement,setting,value
Cn1cc(-c2ccc(N(C(=O)NCc3ccccc3)[C@H]3CC[C@H](Nc4ccc(C#N)cn4)CC3)cc2)ccc1=O,Population Fragmented Nuclei (%),[1],36% and 0%
same,Total Cell Count,[1],41 and 182
same,Population Mitotic Cells (%),[2],6% and 40%
same,Total Cell Count,[2],36 and 241
same,Population Fragmented Nuclei (%),[3],40% and 2%
same,Total Cell Count,[3],47 and 263
same,Total Cell Count,[4],35 and 239
same,Population Fragmented Nuclei (%),[5],23% and 2%
same,Total Cell Count,[5],63 and 467
same,Total Cell Count,[6],42 and 214
Cc1cc(-c2cnc(N)c3c(-c4ccc5scnc5c4)csc23)n(C)n1,Population Fragmented Nuclei (%),[2],19% and 5%
same,Total Cell Count,[2],62 and 230
same,Total Cell Count,[3],56 and 206
same,Population Fragmented Nuclei (%),[4],18% and 3%
same,Total Cell Count,[4],84 and 293
same,Total Cell Count,[5],102 and 435
same,Total Cell Count,[6],99 and 417
O=C1CCCN1CCNc1nc(Nc2ccc(Cl)c(Cl)c2)ncc1C(F)(F)F,Population Pyknosed Nuclei (%),[1],23% and 5%
same,Total Cell Count,[1],17 and 289
same,Population Fragmented Nuclei (%),[2],21% and 5%
same,Population Mitotic Cells (%),[2],0% and 42%
same,Total Cell Count,[2],19 and 188
same,Population Mitotic Cells (%),[3],0% and 26%
same,Total Cell Count,[3],31 and 422
same,Population Fragmented Nuclei (%),[4],3% and 17%
same,Total Cell Count,[4],232 and 40
same,Total Cell Count,[5],58 and 814
same,Total Cell Count,[6],309 and 47
CCc1ncnc(N2CCN(C(C)=O)CC2)c1C#Cc1ccc(N)nc1.Cl.Cl,Population Mitotic Cells (%),[1],0% and 29%
same,Total Cell Count,[1],52 and 291
same,Total Cell Count,[2],66 and 209
same,Total Cell Count,[3],62 and 358
same,Total Cell Count,[4],62 and 254
same,Population Fragmented Nuclei (%),[5],15% and 3%
same,Total Cell Count,[5],73 and 417
same,Total Cell Count,[6],59 and 233
CN(C)C/C=C/C(=O)Nc1cc2c(Nc3ccc(F)c(Cl)c3)ncnc2cc1OC[C@@H]1CCCO1,Population Fragmented Nuclei (%),[1],37% and 6%
same,Total Cell Count,[1],27 and 214
same,Population Fragmented Nuclei (%),[2],26% and 7%
same,Total Cell Count,[2],26 and 259
same,Population Fragmented Nuclei (%),[3],36% and 4%
same,Total Cell Count,[3],33 and 236
same,Population Fragmented Nuclei (%),[4],36% and 6%
same,Population Healthy Nuclei (%),[4],16% and 55%
same,Total Cell Count,[4],30 and 251
same,Population Fragmented Nuclei (%),[5],39% and 4%
same,Total Cell Count,[5],28 and 327
same,Population Fragmented Nuclei (%),[6],46% and 10%
same,Population Healthy Nuclei (%),[6],10% and 33%
same,Total Cell Count,[6],39 and 238
CS(=O)(=O)c1ccc(C(=O)Nc2ccc(F)c(COc3ccc(Br)cc3CN3CC[C@H](O)C3)c2)c(Cl)c1.O=CO,Total Cell Count,[1],50 and 204
same,Total Cell Count,[2],36 and 161
same,Total Cell Count,[3],59 and 287
same,Total Cell Count,[4],179 and 40
same,Total Cell Count,[5],83 and 503
same,Total Cell Count,[6],47 and 241
CS(=O)(=O)c1ccc(C(=O)Nc2cccc(COc3ccc(Br)cc3CNCCO)c2)c(Cl)c1.O=CO,Total Cell Count,[1],35 and 250
same,Total Cell Count,[2],70 and 215
same,Total Cell Count,[3],53 and 351
same,Total Cell Count,[4],70 and 258
same,Total Cell Count,[5],77 and 622
same,Total Cell Count,[6],78 and 343
CN1CCN(C(=O)Cc2ccc(N/C(=C3\C(=O)Nc4cc(Cl)ccc43)c3ccccc3)cc2)CC1,Population Fragmented Nuclei (%),[1],35% and 2%
same,Population Mitotic Cells (%),[1],0% and 45%
same,Total Cell Count,[1],42 and 191
same,Population Apoptotic (%),[2],56% and 0%
same,Population Membrane Permeable-Phenotype (%),[2],1% and 12%
same,Total Cell Count,[2],205 and 31
same,Population Fragmented Nuclei (%),[3],18% and 2%
same,Population Membrane Permeable-Phenotype (%),[3],12% and 1%
same,Total Cell Count,[3],37 and 257
same,Total Cell Count,[4],32 and 287
same,Population Fragmented Nuclei (%),[5],14% and 2%
same,Total Cell Count,[5],41 and 554
same,Total Cell Count,[6],58 and 550
CC(=O)N(CCN(C)C)c1ccc(N/C(=C2\C(=O)Nc3cc(Cl)ccc32)c2ccccc2)cn1,Population Fragmented Nuclei (%),[1],3% and 19%
same,Total Cell Count,[1],249 and 58
same,Total Cell Count,[2],42 and 186
same,Total Cell Count,[3],306 and 54
same,Total Cell Count,[4],182 and 45
same,Total Cell Count,[5],506 and 86
same,Total Cell Count,[6],220 and 50
